# Values joined by “and” are separate entries in the source; they are usually repeats but may differ in a detail not shown here. Identical values can stand only once.
# T1: huFcγRIIa_R167 (human, UniProt P12318 36-218, limits assumed)
# T1 construct: also called huFcγRIIA R167 polymorph
# T1 sequence (looked up): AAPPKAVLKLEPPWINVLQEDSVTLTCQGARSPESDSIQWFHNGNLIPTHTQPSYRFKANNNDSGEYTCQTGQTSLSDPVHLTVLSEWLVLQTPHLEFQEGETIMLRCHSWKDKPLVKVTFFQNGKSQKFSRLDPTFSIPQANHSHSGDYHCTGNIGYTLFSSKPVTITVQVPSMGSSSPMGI
# T2: huFcγRIIa_H167 (human, UniProt P12318 36-218, limits assumed)
# T2 construct: also called huFcγRIIA H167 polymorph
# T2 sequence (looked up): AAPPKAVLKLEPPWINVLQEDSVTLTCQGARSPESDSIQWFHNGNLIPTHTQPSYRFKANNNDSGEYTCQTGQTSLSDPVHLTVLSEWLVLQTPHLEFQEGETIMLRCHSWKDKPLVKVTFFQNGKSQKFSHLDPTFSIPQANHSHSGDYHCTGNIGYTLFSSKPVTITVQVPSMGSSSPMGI
# B1: clone 11 in afucosylated format (anti-GPRC5D IgG1, afucosylated Fc) (antibody)
# heavy: EVQLVESGGGLVQPGGSLRLSCAASGFTVSSNYMSWVRQAPGKGLEWVSVIYSGGSTYYADSVKGRFTISRDNSKNTLYLQMNSLRAEDTAVYYCARGFLAFGRYYYGMDVWGQGTTVTVSS[human IgG1 constant region not listed]
# light: QSVLTQPPSASGTPGQRVTISCSGSSSNIGSNYVYWYQQLPGTAPKLLIYRNNQRPSGVPDRFSGSKSGTSASLAISGLRSEDEADYYCAAWDDSLSGDVFGGGTKLTVLGQPKAAPSVTLFPPSSEELQANKATLVCLISDFYPGAVTVAWKADSSPVKAGVETTTPSKQSNNKYAASSYLSLTPEQWKSHRSYSCQVTHEGSTVEKTVAPTECS
# modifications: afucosylated Fc (GlymaxX technology)
# notes: also called 11-afuco; 11 afuco
# Legend:
# [1] = target: T3, huFcγRI (human, UniProt P12314 16-288); assay: SPR Biacore T200, receptor captured by anti-His, single cycle kinetics, mean of two
# T3 construct: also called human FcγRI
# Description: (§1) The interaction of the antibodies with human Fc receptors was analysed by SPR using a Biacore™ T200 instrument in the following test conditions: [0242] Immobilization of anti-His antibodies on a CM5 sensor chip via amine coupling for seven Fcγ receptors: huFcγRI, huFcγRIIa_H131, huFcγRIIa_R131, huFcγRIIb/c, huFcγRIIIa_V158, huFcγRIIIa_F158, huFcγRIIIb, or use of biotin CAPture for the huFcRn analysis [0243] Capture of each of the Fc receptors [0244] Affinity constant determination by single cycle kinetics (SCK) at concentrations ranging from 0.6 nM to 2000 nM [0245] Interaction with huFcRn was studied at pH5.9 and pH7.4
# [2] = target: T4, huFcγRIIIb (human, UniProt O75015 17-200); assay: as above
# T4 construct: also called human FcγRIIIb
# Description: as §1
# [3] = target: T1, huFcγRIIa_R167; assay: as above
# Description: as §1
# [4] = target: T5, huFcγRIIIa_V158 (human, UniProt P08637 in part); assay: as above
# T5 construct: Recombinant receptor captured on the SPR chip through anti-His antibodies; V at position 158 (mature numbering, as the name says); also called human FcγRIIIa V158 polymorph; CD16a
# Description: as §1
# [5] = target: T6, huFcγRIIIa_F158 (human, UniProt P08637 in part); assay: as above
# T6 construct: Recombinant receptor captured on the SPR chip through anti-His antibodies; also called human FcγRIIIa F158 polymorph; CD16a
# Description: as §1
# [6] = target: T2, huFcγRIIa_H167; assay: as above
# Description: as §1
# [7] = target: T7, human GPRC5D (full length, on cells) (human, UniProt Q9NZD1 1-345); assay: flow cytometry on MM.1R cells, apparent KD, N = 3
# T7 construct: also called huGPRC5D; hGPRC5D
# Description: (§2) FACS analyses were performed to determine the ability of the ADCC-enhanced antibodies to bind to cells that express GPRC5D on their surface.
# (§3) Analyses were performed with Forecyt® Software. Cells were first gated in FSC (forward scatter)/SSC (side scatter). From the resulting cell population, single live cells were gated. Binding was analyzed as median fluorescence intensity (MFI) of the secondary antibody. Curves and apparent KD (“AppKD”) calculations were generated using GraphPad Prism Software (FIG. 2).
# [8] = target: T7, human GPRC5D (full length, on cells); assay: cell-based or functional assay
# [9] = target: T7, human GPRC5D (full length, on cells); assay: flow cytometry on HEK FITR cells expressing full-length hGPRC5D, apparent KD
# Description: as §2, §3
# [10] = target: T7, human GPRC5D (full length, on cells); assay: flow cytometry on MM.1R cells, apparent KD, N = 1
# Description: as §2, §3
# [11] = target: T8, huFcRn (human, UniProt P55899 in part; P61769 in part); assay: SPR Biacore T200, huFcRn on biotin CAPture, pH 5.9, mean of two; pH 5.9
# T8 construct: also called human FcRn
# Description: as §1
# [12] = target: T9, human GPRC5D truncated, N-terminal deletion of the first 15 residues (aa16-aa330), on HEK FITR cells (human, UniProt Q9NZD1 16-330); assay: flow cytometry on HEK FITR cells expressing hGPRC5D (aa16-aa330), apparent KD
# T9 construct: also called hGPRC5D (aa16-aa330)
# Description: as §2, §3
# [13] = target: T1, huFcγRIIa_R167; assay: SPR Biacore T200, receptor captured by anti-His, single cycle kinetics
# [14] = target: T7, human GPRC5D (full length, on cells); assay: flow cytometry on Flp-In-293 cells expressing huGPRC5D, apparent KD
# Description: as §2, §3
# [15] = target: T7, human GPRC5D (full length, on cells); assay: cell-based or functional assay; remark: listed apart in the source
# [16] = target: T10, cynomolgus GPRC5D expressed on Flp-In-293 cells (cynomolgus); assay: flow cytometry on Flp-In-293 cells expressing cyGPRC5D, apparent KD
# T10 construct: whole, on cells; also called cyGPRC5D
# Description: as §2, §3
# [17] = target: T7, human GPRC5D (full length, on cells); assay: flow cytometry on MM.1R cells, apparent KD, mean
# Description: as §2, §3
# [18] = target: T11, human GPRC5D truncated, N-terminal deletion of the first 20 residues (aa21-aa330), on HEK FITR cells (human, UniProt Q9NZD1 21-330); assay: flow cytometry on HEK FITR cells expressing hGPRC5D (aa21-aa330), apparent KD
# T11 construct: also called hGPRC5D (aa21-aa330)
# Description: as §2, §3
# [19] = target: T7, human GPRC5D (full length, on cells); assay: cell-based or functional assay; remark: listed apart in the source
# [20] = target: T8, huFcRn; assay: SPR Biacore T200, huFcRn on biotin CAPture, pH 5.9, mean of two; pH 5.9; fold change vs BM1 IgG1 wt
# [21] = target: T7, human GPRC5D (full length, on cells); assay: flow cytometry on MM.1R cells, apparent KD, N = 2
# Description: as §2, §3
# T7 sequence (Q9NZD1 whole entry): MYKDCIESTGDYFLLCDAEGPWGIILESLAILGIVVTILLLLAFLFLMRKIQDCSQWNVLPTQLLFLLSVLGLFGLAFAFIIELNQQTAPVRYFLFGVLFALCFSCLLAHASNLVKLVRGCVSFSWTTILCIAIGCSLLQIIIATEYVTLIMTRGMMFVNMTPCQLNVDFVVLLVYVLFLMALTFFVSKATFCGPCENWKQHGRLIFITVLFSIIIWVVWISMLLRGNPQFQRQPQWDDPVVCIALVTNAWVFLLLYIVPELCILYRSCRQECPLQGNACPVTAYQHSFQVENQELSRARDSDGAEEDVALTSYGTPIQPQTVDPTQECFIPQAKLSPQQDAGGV
# T3 sequence (P12314 16-288 limits assumed): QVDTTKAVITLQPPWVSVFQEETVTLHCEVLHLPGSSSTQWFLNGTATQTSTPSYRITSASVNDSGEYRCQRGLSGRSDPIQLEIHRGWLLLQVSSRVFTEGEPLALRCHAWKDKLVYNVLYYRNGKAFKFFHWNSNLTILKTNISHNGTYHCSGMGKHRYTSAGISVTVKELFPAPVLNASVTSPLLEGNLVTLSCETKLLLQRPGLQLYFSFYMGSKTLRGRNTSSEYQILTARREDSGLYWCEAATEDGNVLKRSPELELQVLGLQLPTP
# T4 sequence (O75015 17-200 limits assumed): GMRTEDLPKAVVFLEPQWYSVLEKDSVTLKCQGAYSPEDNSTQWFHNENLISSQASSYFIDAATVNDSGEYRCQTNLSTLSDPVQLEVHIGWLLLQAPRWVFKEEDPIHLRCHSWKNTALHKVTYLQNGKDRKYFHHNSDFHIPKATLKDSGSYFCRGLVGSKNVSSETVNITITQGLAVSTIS
binder,measurement,setting,value
B1,Fold change vs BM1 IgG1 wt,[1],1 fold
same,Kd,[1],1.17 nM
same,Fold change vs BM1 IgG1 wt,[2],10 fold
same,Kd,[2],183 nM
same,NormB,[3],2
same,Fold change vs BM1 IgG1 wt,[4],10 fold
same,Kd,[4],4.93 nM
same,NormB,[4],34
same,Fold change vs BM1 IgG1 wt,[5],8 fold
same,Kd,[5],29 nM
same,NormB,[5],37
same,Fold change vs BM1 IgG1 wt,[6],1 fold
same,Kd,[6],2130 nM
same,NormB,[6],13
same,Kd,[7],0.024 nM
same,"relEC50 Median, ADCC (calcein release) against MM.1R cells with NK cells",[8],5.4 ng/ml and 36 pM
same,Kd,[9],1.3 nM
same,Kd,[10],0.035 nM
same,Kd,[11],408 nM
same,Kd,[12],0.8 nM
same,binding result,[13],no binding (tested: 0.6 nM to 2000 nM)
same,Kd,[14],2.2 nM
same,"relEC50 Median, ADCC (calcein release) against EJM cells with NK cells",[15],20.5 ng/ml and 141 pM
same,Kd,[16],1.3 nM
same,Kd,[17],0.025 nM
same,Kd,[18],1 nM
same,"relEC50 median, ADCC over four days (Incucyte) against MM.1R cells with NK cells",[19],0.5 ng/ml and 3.45 pM
same,Fold change vs BM1 IgG1 wt,[20],1 fold
same,Kd,[21],0.017 nM
